# Data reported in paper PMC4336329 (PLoS ONE, 2015).
# The whole screen tested about 310,000 compounds, of which about 2,200 (0.71%) showed an effect of 50% or more. The effect is printed as a negative number. The list shows a part of the results.
# Molecular target: human ether-à-go-go-related gene (hERG) potassium channel (human, UniProt Q12809)
# Assay: primary screen, population patch clamp on CHO cells stably expressing hERG
# Chain of human ether-à-go-go-related gene (hERG) potassium channel (Q12809 whole entry, looked up): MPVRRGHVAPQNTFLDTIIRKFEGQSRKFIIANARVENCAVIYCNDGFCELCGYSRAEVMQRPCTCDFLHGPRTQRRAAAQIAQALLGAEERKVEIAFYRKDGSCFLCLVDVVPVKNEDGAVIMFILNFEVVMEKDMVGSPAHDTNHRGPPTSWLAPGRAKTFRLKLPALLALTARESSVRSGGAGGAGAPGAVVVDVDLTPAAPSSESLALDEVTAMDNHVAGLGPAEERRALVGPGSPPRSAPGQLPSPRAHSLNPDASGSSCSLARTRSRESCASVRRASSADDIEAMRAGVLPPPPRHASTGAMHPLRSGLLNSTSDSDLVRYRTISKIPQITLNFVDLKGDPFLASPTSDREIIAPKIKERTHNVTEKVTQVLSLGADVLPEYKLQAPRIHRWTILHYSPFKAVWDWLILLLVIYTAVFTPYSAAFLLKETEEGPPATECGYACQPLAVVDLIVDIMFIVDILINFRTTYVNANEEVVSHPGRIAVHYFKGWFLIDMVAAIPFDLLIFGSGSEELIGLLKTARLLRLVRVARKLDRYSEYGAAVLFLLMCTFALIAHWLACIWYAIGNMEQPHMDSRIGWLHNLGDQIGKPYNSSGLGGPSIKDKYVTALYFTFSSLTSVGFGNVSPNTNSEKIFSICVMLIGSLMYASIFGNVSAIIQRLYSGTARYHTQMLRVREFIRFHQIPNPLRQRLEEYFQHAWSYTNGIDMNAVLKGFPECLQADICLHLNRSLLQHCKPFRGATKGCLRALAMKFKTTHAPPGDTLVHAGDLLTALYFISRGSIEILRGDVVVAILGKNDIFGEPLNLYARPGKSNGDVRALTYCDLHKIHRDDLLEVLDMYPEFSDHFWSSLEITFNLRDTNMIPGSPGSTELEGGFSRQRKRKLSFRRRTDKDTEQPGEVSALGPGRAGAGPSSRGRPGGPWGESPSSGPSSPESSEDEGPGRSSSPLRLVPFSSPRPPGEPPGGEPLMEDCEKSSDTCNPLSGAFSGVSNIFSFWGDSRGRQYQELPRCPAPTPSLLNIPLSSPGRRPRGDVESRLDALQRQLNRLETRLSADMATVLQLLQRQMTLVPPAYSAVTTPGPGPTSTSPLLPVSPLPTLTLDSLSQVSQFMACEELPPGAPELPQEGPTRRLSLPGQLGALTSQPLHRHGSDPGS
row,SMILES,"hERG current change (%, negative = inhibition) at 1uM [%]"
1,Cc1ccc(C)n1NC(=O)c1ccc(Cl)cc1Cl,-0.279
2,COc1ccc2c(c1)sc(=N)n2C,13.1
3,Cc1ccc(Cl)c(OCC(=O)NN2CCN(C)CC2)c1,8.77
4,CC(C)CCn1c(=O)c(C(=O)NCc2ccc3c(c2)OCO3)c(O)c2ccccc21,16
5,CC1CCN(S(=O)(=O)c2cccc(C(=O)N(Cc3ccccc3)c3ccccn3)c2)CC1,8.14
6,O=C(NCc1ccccn1)c1coc(=O)c(Br)c1,13.1
7,CNC(=O)c1c(NC(=O)c2ccc(S(=O)(=O)N3CCCc4ccccc43)cc2)sc2c1CCN(C)C2,5.03
8,N#C/C(=C\c1ccc(F)c(Cl)c1)S(=O)(=O)c1ccccn1,3.4
9,N#Cc1cnn2c(C(F)(F)F)cc(-c3ccccc3)nc12,14.2
10,CN1CCN(c2ccc(Cl)cc2NC(=O)c2cccc(S(=O)(=O)N(C)C)c2)CC1,-10
11,COC(=O)C(N)Cc1ccc(O)cc1.Cl (centres unmarked),16.4
12,O=C(COC(=O)c1cc(=O)[nH]c2ccccc12)NC(=O)c1ccccc1,3.88
13,CCc1cccc(C)c1NC(=O)C1C2CCC(O2)C1C(=O)O (centres unmarked),18.6
14,COc1cc2c(cc1OC)C1(CCCC1)CNC2c1ccc([N+](=O)[O-])cc1.Cl (centres unmarked),-11.5
15,COC(=O)c1ccc(C(=O)OC)c(NC(=O)COC(=O)C2CCC(C(C)(C)C)CC2)c1 (centres unmarked),12.4
16,COc1cccc(/C=N/NC(=O)c2oc3nc(-c4ccccc4)cc(-c4ccco4)c3c2N)c1,2.73
17,O=C(O)CCC(=O)Nc1ccc(Cc2ccc(NC(=O)CCC(=O)O)c(O)c2)cc1O,7.88
18,CC(C)CCNc1ncnc2c1nnn2Cc1ccccc1Cl,0.36
19,CC(C)c1ccc(S(=O)(=O)N2CCN(CC(O)CN3CCOCC3)CC2)cc1 (centres unmarked),0.0972
20,Cc1cc(NC(=O)c2noc3c2CCc2ccccc2-3)no1,3.25
21,CN(C)c1ccnc(C(=O)O)c1,19.4
22,CCOC(=O)CSc1nnc(Cn2c(=O)sc3ccccc32)n1-c1ccccc1C,3.34
23,Nc1nc2ccccc2n1/N=C/c1ccc(-c2ccccc2)o1,-1.77

row,SMILES,"hERG current change (%, negative = inhibition) at 1uM [%]"
1,CC(C)NC(=O)c1onc(CSc2cccc(Cl)c2)c1C(=O)O,11
2,CC(=O)c1cccc(NC(=O)c2ccccc2N(Cc2ccccc2)S(C)(=O)=O)c1,16.2
3,CCn1c(SCC(=O)Nc2cc(NC(C)=O)ccc2OC)nnc1-c1ccccn1,11.4
4,O=C(CN1CCN(c2ccc([N+](=O)[O-])cc2)CC1)c1ccccc1,-9.94
5,Cc1ccc(C2=CC(C)(c3ccc(C)cc3)Nc3nc(C(F)(F)F)nn32)cc1 (centres unmarked),17.6
6,COc1ccc(/C=N/NC(=O)CC(=O)NCc2cccnc2)c(OC)c1,6.08
7,O=C(Nc1ccccc1C(=O)N1CCCC1)C1COc2ccccc2O1 (centres unmarked),7.66
8,COc1ccc(C(=O)OCC(=O)NC(C)CCc2ccccc2)c(OC)c1 (centres unmarked),-0.658
9,COc1ccc(C(C)=O)cc1COC(=O)CCCN1C(=O)c2ccccc2C1=O,7.94
10,CC/C(=N\NC(=O)c1ccc(CN(C)S(=O)(=O)c2ccc(C)cc2)cc1)c1ccc(OC(F)F)cc1,-3.53
11,COc1ccc(CCNC(=O)CSc2nc3[nH]ncc3c(=O)n2-c2ccccc2OC)cc1OC,21.9
12,C/C(=N\NC(=O)c1nnn(-c2nonc2N)c1CN1CCOCC1)c1ccc(CC(C)C)cc1,21
13,O=C(COC(=O)Cc1c[nH]c2ccccc12)NC1CCCCC1,17.8
14,COc1ccccc1CCNC(=O)c1ccc2nc[nH]c2c1,10.1
15,Cc1nn(-c2ccccc2)c(C)c1C(=O)OCC(=O)NC(=O)NC1CCCC1,8.88
16,CCOc1cc(C(=O)NCCC(=O)N2CCC3(CC2)NCCc2[nH]cnc23)cc(OCC)c1OCC,31.7
17,O=C(Nc1nnc(-c2ccc(Cl)cc2)o1)c1nc2ccccc2s1,9.84
18,O=[N+]([O-])c1ccc(OCc2n[nH]c(=S)n2-c2ccccc2)cc1,5.05
19,COc1cc2[nH]c(=S)n(C3CC3)c(=O)c2cc1OC,25.7
20,COc1ccc(-c2nn(-c3ccccc3)cc2/C=N/NC(=S)NC(C)C)cc1OC,10.5
21,Cc1cccc(N2CCN(C(=O)C(Cc3ccccc3)NC(N)=O)CC2)c1C (centres unmarked),4.85
22,Cc1cc(=O)[nH]c(SCC(=O)NC(C)C2CC3CCC2C3)c1C#N (centres unmarked),13
23,CCN(CC)c1ccc(C(=O)OCC(=O)Nc2sccc2C#N)cc1,11.7

row,SMILES,"hERG current change (%, negative = inhibition) at 1uM [%]"
1,CCOc1ccc(CCNC(=O)c2cc(-c3ccccc3)c(N3CCOCC3)s2)cc1OCC,11.2
2,CC(=O)N1C(=O)c2cccc3cccc(c23)C(=O)N1C(C)=O,4.19
3,CCOC(=O)c1c(N)nn(C(C)=O)c1-c1ccccc1,14.5
4,Cn1cnc2c1c(=O)n(Cc1ccccc1)c(=O)n2C,0.97
5,Cc1ccc(OCCSc2nnc(C)c(=O)n2N)cc1,13.8
6,NC(=O)c1ccc(NC(=O)COC(=O)c2ccc3c(c2)OCO3)cc1,4.12
7,O=C(COC(=O)CNC(=O)C1CCCCC1)Nc1ccc(Br)cc1Br,1.93
8,O=C(Cn1ncc2c1-c1ccccc1OC2)Nc1cccc(Cl)c1,9.86
9,O=C(c1ccc(C(F)(F)F)n(Cc2ccc(Cl)cc2)c1=O)N1CCOCC1,6.82
10,Cc1ccc(-c2cc(-c3ccc(F)cc3)n[nH]2)c(O)c1,8.35
11,Cc1ccc(S(=O)(=O)N(C)C)cc1NC(=O)C(C)OC(=O)c1ccc2ccccc2n1 (centres unmarked),4.36
12,CCOc1ccc(NC(=O)CCSc2ccc(C)cc2)cc1,10.5
13,O=C(COc1ccc(N2CC(C(=O)O)CC2=O)cc1)Nc1cccc(C(F)(F)F)c1 (centres unmarked),23.8
14,O=c1c2[nH]c3cccc(Cl)c3c2ncn1Cc1ccco1,11.7
15,CC(=O)Nc1ccc(/C(C)=N/NC(=O)c2ccc(COc3ccccc3Cl)o2)cc1,5.1
16,COC(=O)C1=[N+]([O-])OC(C(=O)OC)C1c1c[nH]c2ccccc12 (centres unmarked),-6.78
17,O=C(N/N=C1\CCc2ccccc21)c1ccccc1O,8.05
18,NC(=O)CC[C@H](NC(=O)OCc1ccccc1)C(=O)OCc1ccc(Cl)cc1,11.2
19,CCC(C)NC(=O)c1c(C)cc(=O)oc1C (centres unmarked),12.7
20,O=C(O)[C@H](Cc1c[nH]c2ccccc12)Nc1ncccc1[N+](=O)[O-],3.59
21,CC(C)Cc1[nH]c(=O)c(C#N)c2c1CCC2,9.78
22,COC(=O)c1ccc([C@H]2C=C(C(=O)O)O[C@@H](OCc3ccc(CO)cc3)C2)cc1,19.8
23,Cc1nccn1C[C@@H]1CCc2c(c3ccccc3n2C)C1=O,-0.139

row,SMILES,"hERG current change (%, negative = inhibition) at 1uM [%]"
1,CC(C)CC(=O)NC(c1ccccc1Cl)c1c(O)ccc2ccccc12 (centres unmarked),-0.335
2,Cc1cc(-n2nc(C)cc2C)n2nc(C)c(-c3ccccc3)c2n1,10.9
3,CCCOc1ccc(S(=O)(=O)N2CCOCC2)cc1[N+](=O)[O-],-29.4
4,CCC(C)(C)C1CCC(=NNc2nc3ccccc3[nH]2)CC1 (centres unmarked),12.5
5,CCOc1ccc(C(=O)c2nc3c(n2O)CCCCC3)cc1,15
6,COc1ccccc1N/C(N)=N/c1nc(CSc2ccc(C)cc2)cc(=O)[nH]1,13.6
7,O=C(COC(=O)CCc1ccc(S(=O)(=O)N2CCOCC2)cc1)NC1CCCC1,3.56
8,O=C(O)CCS(=O)(=O)c1cccc2cccnc12,13.8
9,CCNC(=O)c1ccc(-n2nc(C)cc2-c2ccccc2)cc1,5.17
10,CCOc1cccc(C(=O)Nc2cccc(-c3nnc(-c4ccc(C)cc4)o3)c2)c1,12.9
11,CCOCCc1nnc(NC(=O)CN2C(=O)c3ccccc3C2=O)s1,-8.7
12,CCCC(=O)N=c1sc2cccc(F)c2n1C,3.66
13,Cc1ccc(SCCNC(=O)C(C)C)cc1,12.6
14,CC(Sc1nnc(N)s1)C(=O)NC1CCCCC1C (centres unmarked),-2.98
15,O=C(Nc1cccc(-c2ccc(N3CCCCC3)nn2)c1)C(F)(F)F,6.42
16,Cc1ccc(N(C(C)C(=O)N2CCN(Cc3ccccc3)CC2)S(C)(=O)=O)cc1 (centres unmarked),5.58
17,CCOc1ccc(NC(=O)CCN2CCN(S(=O)(=O)c3ccc(F)cc3)CC2)cc1,11.5
18,COC(=O)C1=C(Nc2cc(Cl)cc(Cl)c2)CSC1,12.5
19,Cc1ccccc1NC(=O)N1c2ccccc2CC1C (centres unmarked),12.5
20,CC(=O)c1cn(Cc2ccccc2C#N)c2ccccc12,28.3
